According to publication PMC11243198, “Identification of Novel GANT61 Analogs with Activity in Hedgehog Functional Assays and GLI1-Dependent Cancer Cells” (Molecules, 2024):

Key:
[1] = test system: U87MG cells; test: Cancer cell viability MTT assay, U87MG; format: cell-based, human; details: 72 h
Protocol: (§1) Glioma cell lines T98G and U87MG were plated in 384-well (clear, flat-bottomed) plates in EMEM/10% FBS (50 µL) at densities of 1500 and 2500 cells/well, respectively. Lung cancer cell lines SK-MES-1 and H1437 were plated at cell densities of 1000 cells/well in 50 µL EMEM and 2000 cells/well in 50 µL RPMI-1640, respectively. After 24 h, cells were treated with selected GANT61 analog compounds using a 10-point, 2-fold dose–response curve (0.098–50 µM) and incubated at 37 °C for 72 h. To assess cell viability, MTT was added to each well at a final concentration of 0.5 mg/mL using a Biomek®NX (Brea, CA, USA) automated liquid handler followed by incubation for 4 h at 37 °C. Media and MTT were then removed, DMSO (40 µL) was added to each well to dissolve the formed formazan crystals, and they were incubated for 1 h. Absorbance was then measured at 550 nm using a SpectraMax plate reader (Molecular Devices, San Jose, CA, USA). Cells treated with 0.1% DMSO were used as a control. The absorbance values from compound-treated wells were normalized to the control. The normalized absorbance values were used to calculate the percentage of viable cells remaining after treatment with the compounds. Data were analyzed using Prism 9 (GraphPad, Boston, MA, USA).

[2] = test system: Hh pathway in C3H10T1/2 cells; test: C3H10T1/2 Hedgehog-responsive cell-based assay, alkaline phosphatase (AP) fluorescence readout; parameters: species or system murine; details: screening for Hh pathway inhibition
[3] = test system: T98G cells; test: Cancer cell viability MTT assay, T98G; format: cell-based, human; details: 72 h
Protocol: as §1

[4] = test system: H1437 cells; test: Cancer cell viability MTT assay, H1437; format: cell-based, human; details: 72 h, cells with minimal GLI expression
Protocol: as §1

[5] = test system: SK-MES-1 cells; test: Cancer cell viability MTT assay, SK-MES-1; format: cell-based, human
Protocol: as §1

[6] = test system: Gli1 mRNA expression; details: 10 μM, SAG 30 nM

IC50 ([1]; Homo sapiens, U-87 MG) [µM] | IC50 ([3]; Homo sapiens, T98G) [µM] | IC50 ([5]; Homo sapiens, SK-MES-1, 72 h) [µM] | SMILES | Activity among the fifty-two analogs screened (preliminary SAR) [2] | effect on H1437 cell viability [4] | reduction of Gli1 mRNA expression compared to SAG-treated cells ([6]; 48 h) | effect on U87MG cell viability [1] | effect on SK-MES-1 cell viability ([5]; 72 h) | reduction of Gli1 mRNA expression compared to SAG-treated cells ([6]; 96 h) [fold] | reduction in T98G cell viability ([3]; 50 μM) [%]
9.5 | 29.5 | 9.3 | c1cc(CNc2ccc(N3CCCC3)cc2)ccn1 [BAS 07019774, pyridin-4-ylmethyl-(4-pyrrolidin-1-yl-phenyl)-amine] | active | did not affect the viability | – | – | – | – | –
– | – | – | CN(C)c1ccccc1CN1CCCN(Cc2ccccc2N(C)C)C1c1ccncc1 [GANT61] | – | some effect on the viability of these cells at high concentrations | 20.4 fold | less effective than BAS 07019774 | modest effect | – | –
– | – | – | N#Cc1ccc(C(=O)Nc2ccccc2C(=O)NC2CC2)cc1 [Compound Z27610715] | – | – | ineffective | minimal effect | – | 4.5 | 19.2

Where two headings read alike, the source gives them in different places.
